In the supplement of paper PMC11417369:
± gives the standard deviation of the averaged measurements. The list shows a part of the results.

System: PfAP2-G AP2 domain (GST-tagged)
Experiment: gcPBM binding intensity (ln(normalized median fluorescence intensity)); higher = stronger DNA binding
Method in brief: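 An Agilent 4 × 180k array of primer-extended double-stranded 36-bp intergenic genomic probes, with negative controls, was incubated for 1 h with GST-tagged P. falciparum DNA-binding domains expressed in E. coli. Alexa488 anti-GST antibody detected bound protein, scanned at 488 nm. Binding intensity is the highest Masliner-normalised natural-log median intensity across replicate spots of either probe orientation.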

| Sequence | gcPBM binding intensity (ln) |
| --- | --- |
| TTTTTGATGAAATATTATTTTCCTGACTTGGATTAA [CACACA_negctrl_site148] | 9.7 ± 0.028 |
| GAAATGGAAAAATATACATGCGCATATAAATTAATA [TGCATGCA_site834] | 9.72 ± 0.099 |
| ATAATATATTTATGTTGTACAAGGAAAATTTTGAAA [XGTACX_site3472] | 11.3 ± 0.74 |
| TATAATGATATAACAACACACATGTATGTATTATTA [CACACA_site230] | 9.845 ± 0.049 |
| ATCATATGTATGCATACACACAAAAAATTATATATA [CACACA_site398] | 10 ± 0.13 |
| TTATTTATGATATATACACACTAACATTATTTATCC [CACACA_site6720] | 9.895 ± 0.064 |
| TCTTATATATGCTTAAATATATTATATTTATTTGAA [CACACA_negctrl_site1757] | 9.56 ± 0.11 |
| TTTTTCTTCTGCATTATGCACACTATAATTCGTTAA [CACACA_site2837] | 10.1 ± 0.11 |
| TATAGATACCTATACACACACACACGGACATATATA [CACACA_site7585] | 10.9 ± 0.49 |
| ATATAAAACAACGGGTGTACAAAAAAATAAATAATA [XGTACX_site4094] | 11.3 ± 0.76 |
| AAAGAAATGAAATATACACACATACCTATATACATA [CACACA_site7817] | 9.88 ± 0.16 |
| TTTTTAATATATAAAGATAATAATAAATAAAATTCA [CACACA_negctrl_site657] | 9.46 ± 0.12 |
| TATATATTTATATATGCATGTACATTTTTATTTATT [TGCATGCA_site1048] | 11 ± 0.48 |
| TTAAAATCTTGAAAAGTGCATTATCATTTTGTAACG [GTGCAC_site9447] | 9.9 ± 0.11 |
| TATAATGATGATGATAGTACGTATGAGTTCAAAAAA [XGTACX_site3656] | 11.1 ± 0.64 |
| GGGTATAATAAAAGCACACACAAAGATATAAATATA [CACACA_site3308] | 10.1 ± 0.21 |
| AAAAAAAAAAAACACGCATGTACATAAAAATAATCA [TGCATGCA_site142] | 11.2 ± 0.49 |
| TTTTTTTTTTTTAATTAACACACATAAATATATATA [CACACA_site9077] | 9.89 ± 0.29 |
| CTGAATGTATATATTTGTACATATATATATATATAT [XGTACX_site5557] | 11.1 ± 0.97 |
| TGTGTATATGTGCAAAGTACAAAAAAGAAATTATTT [XGTACX_site7569] | 10.8 ± 0.51 |
| AATATATGGTTCCTTGATATTAAATTCAATTTAATG [CACACA_negctrl_site71] | 10.3 ± 0.2 |
| TAAATCTATATCATCACACACACATACATAAATATA [CACACA_site6228] | 10.1 ± 0.15 |
| TAGTATTGTAAAAAAAAAAAAGAAAAAAAAAAAAAA [CACACA_negctrl_site977] | 9.68 ± 0.15 |

| Sequence | gcPBM binding intensity (ln) |
| --- | --- |
| GTGGAAAAAAATAATTGTACACAATAATAAATATAT [XGTACX_site2414] | 11.3 ± 0.69 |
| TGGATGTTAATATAGTGTACATTTATAAGTCAGTAT [XGTACX_site2949] | 11.1 ± 0.62 |
| CACTAAACATATACACGTACATGCAACGGATTTTTT [XGTACX_site461] | 11.3 ± 0.76 |
| ACCTTTATTGTATGAACACACATAAGCTGATACATC [CACACA_site4028] | 10.2 ± 0.11 |
| GAAAAAAAATCCAAGATGCACTATTATTACAAAAAT [GTGCAC_site9516] | 10.02 ± 0.014 |
| GTCAAAAGTTTTTAAGGTACACTTATTTTATTATAA [XGTACX_site7004] | 11.4 ± 0.96 |
| ATGTAATATATGCGGAAATATATTCACAAGACGTCA [CACACA_negctrl_site373] | 9.94 |
| TATAAAAAAAATTGCACACATATTATACAGGACGAC [CACACA_site701] | 10.5 ± 0.2 |
| TGTATATATCAATGTACACACATGCGTATGTTCGTT [CACACA_site7654] | 11.1 ± 0.67 |
| AAAATATATATAACTTGTACATATACATACGTATAT [XGTACX_site4570] | 11 ± 0.67 |
| ATACATAATAACTCCTGTACTTAAAAATGTATATAT [XGTACX_site1071] | 11.3 ± 0.83 |
| TAAAAAAAAACATGTGCACACGTTTTATCTACATAA [CACACA_site2336] | 10.3 ± 0.25 |
| AATTATAAATTGGACACACACATAAAAAATATGTAC [CACACA_site221] | 11.6 ± 0.8 |
| TAAAGGAAATAAAAAACATGCAAATATGAAATATAT [TGCATGCA_site745] | 9.88 ± 0.12 |
| TTTTTTTTTTTTTTTTTTAAACACCTCAAAAAAAAA [CACACA_negctrl_site807] | 9.89 ± 0.39 |
| TTGCATTGTCCATGCGCACACACTACTAGAATAATA [CACACA_site3678] | 10.8 ± 0.47 |
| TTACATATTATACGAAGTACGTACAAATACTTATAT [XGTACX_site8598] | 11.7 ± 0.81 |
| GCGAATAATATGGACATACACACATATACATACATA [CACACA_site2115] | 10.9 ± 0.55 |
| TATATATATTTTTGTGTGCACTATAATATGAAAATA | 10.6 ± 0.51 |
| TTTTTTTTTTTCTTCACACACAGTACTACTATTTAT [CACACA_site2409] | 11.3 ± 1 |
| ACCTTATTTAGTTATAGTACACAAAGTATTAAACAT [XGTACX_site8418] | 11.5 ± 0.81 |
| ATTTTTTTTTTTTTTTTCTTTTTTCTTCTTTTTTTT [CACACA_negctrl_site1223] | 9.65 ± 0.085 |
| ATATATATTATAAAATGTACAAATGTTATATAAAAT [XGTACX_site4750] | 10.9 ± 0.38 |

| Sequence | gcPBM binding intensity (ln) |
| --- | --- |
| TTTTTTTTTTTTTTATGTACATATATATATTTTATT [XGTACX_site6915] | 11.2 ± 0.98 |
| TCATTTATTGAGGAATGTACACGTAAAATTTAATAA [XGTACX_site4086] | 11.4 ± 0.8 |
| TATACATAAAAATGATGTACATATAATATATATATA [XGTACX_site3863] | 11.3 ± 0.76 |
| TTATTATTATAAAATTGTACTTGGTATATTAACATA [XGTACX_site5829] | 10.9 ± 0.64 |
| TTGTTTATTTGTAAAGCTAACAAGAAATGTGAATAT [CACACA_negctrl_site931] | 10.1 ± 0.099 |
| AACGAACACTATTACACACATACATACATATGTATG [CACACA_site1859] | 10.22 ± 0.014 |
| TATTTATAAATATAAACACACAACATTCTATGCATA [CACACA_site3243] | 9.82 ± 0.19 |
| ATATAAATATATTTTACACACAATGGAGAAAAAAAT [CACACA_site6450] | 10.2 ± 0.13 |
| GGATTAATATATTTACCACACACCCATTTCGATTTT [CACACA_site9200] | 10.2 ± 0.13 |
| ATCTTGAAGATTATTTGTACACAAAAGTTAAAATAT [XGTACX_site242] | 11.2 ± 0.82 |
| TATATAATTATTTATTGTACACTCAAATCGATAAGG [XGTACX_site3216] | 11.3 ± 0.86 |
| AATGTATTATGTCTTCGTACACATAAATAAATAAAT [XGTACX_site4004] | 11 ± 0.64 |
| ATAATAAATGATAGCACACATATGTACATAAATACA [CACACA_site4634] | 11.5 ± 0.79 |
| TATCTTAACAATTAGTGTACAGATAACCAATTAAAA [XGTACX_site3184] | 11.3 ± 0.89 |
| AACATATAAAAATGTGCACACACACCCATATATATA [CACACA_site1525] | 10.4 ± 0.3 |
| CACATTATGTATCATACACACAAATAGATATATAAC [CACACA_site6434] | 10.32 ± 0.092 |
| TAAAATAAAAATATAGTGCACAGATTTTGATATTTT [GTGCAC_site9696] | 10.2 ± 0.2 |
| CTTTGTGGTATAGATACACACTATATTAAGATGAAC [CACACA_site5215] | 10.3 ± 0.28 |
| TTTTTTTTTTATGGTACACACACGCGTATGGTTGCA [CACACA_site1876] | 11.4 ± 0.91 |
| TTTAGAAATAAATACACACATACATTTTTGTATACA [CACACA_site718] | 9.85 ± 0.071 |
| TGAAGGTTTCAAAAACGTACAAAAAAAAATGTTAGT [XGTACX_site8803] | 11.2 ± 0.67 |
| AAAGGATATAATACCATACACACATTTATAAAATAA [CACACA_site1931] | 10.07 ± 0.035 |
| CAAATCAAAATTAATTAACACACAATTTTAATATTC [CACACA_site8641] | 9.7 ± 0.15 |

| Sequence | gcPBM binding intensity (ln) |
| --- | --- |
| TTCTTTGTAGTATATTAACACACAACTGTTTATAAT [CACACA_site9305] | 10.23 ± 0.085 |
| AAATAGAGAAATACAAGTACATACTAAACCAATCTA [XGTACX_site2780] | 11.2 ± 0.78 |
| TATAATGTTGATAATAGTACGTATGAGTTCAAAAAA [XGTACX_site988] | 11.1 ± 0.59 |
| GTTTATTAAACATTAGTGCAATTTTAATCCATTCTA | 9.815 ± 0.021 |
| TACCTACACTTTTGGAGTACAATTAAAAAAAAAAAA [XGTACX_site1403] | 11.5 ± 1.1 |
| TTTAAAGTAATAAAGTGTACAAAAATAAATTCAGCT [XGTACX_site8651] | 11.2 ± 0.67 |
| ACTTTTATTCGCTTACGTACATATATTATATATTAT [XGTACX_site4459] | 11.4 ± 0.73 |
| AAAAGAAAATATATGTGTACTAAAATATATATATAT [XGTACX_site3817] | 11.5 ± 0.76 |
| TTAATCCTTTTTAAAAGTACACATATATATATATAT [XGTACX_site962] | 11.6 ± 1 |
| TATATATATATATAATGTACAGAAAAAAAAAAAAAA [XGTACX_site6141] | 10.8 ± 0.86 |
| AAATCATGTTGAAGGGGTACAAAATATGTAATGTTG [XGTACX_site6222] | 11.3 ± 0.83 |
| ATATTATATATTTGATGTACATTGAATGAGAGAGAA [XGTACX_site3324] | 11.1 ± 0.54 |
| TTATTAATTATATATAGTACACATTTCACAGATGGG [XGTACX_site2349] | 11.3 ± 0.86 |
| TGAACACATACATACACACACACAAAAAAAAAAAAA [CACACA_site392] | 10 ± 0.55 |
| CTTGTGCTTTATAGGGTGCACATTTTGTTTTGGTAA [GTGCAC_site9899] | 10.7 ± 0.72 |
| ATAAAAAGGTTTAAAAAAAAAAAAAAAAAAAAAAAA [CACACA_negctrl_site412] | 9.5 ± 0.35 |
| AAAATTATGCAGTAGGTGCAATACCCTCGGCTTTTT [GTGCAC_site9556] | 9.905 ± 0.049 |
| TATTTCAAATGTTATGTGCACATATTAATCCTACTT [GTGCAC_site9738] | 10.5 ± 0.28 |
| AATATCTGAAAATAAAGTACAAACATATTATAAATA [XGTACX_site5738] | 11.1 ± 0.73 |
| AATAATAATTTAAAAAGTACATTCTAATAAACACGT [XGTACX_site1444] | 11.2 ± 0.72 |
